Test results as given in the RNAGym collection of RNA variant scans (doi:10.1093/nar/gkz1192).
Read counts are not given, so values of variants with three or more changes are uncertain.

B1: CPEB3 Ribozyme (parent)
chain: UAACAGGGGGCCACAGCAGAAGCGUUCACGUCGCAGCCCCUGUCAGAUUCUGGUGAAUCUGCGAAUUCUGCUGUAUAUCUC

Variants of: B1
Experiment: self-cleavage, relative activity (ratio to wild type); higher = more cleavage; in vitro, sequencing
Outline: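 Relative activity was defined as the cleaved/total read fraction for a variant divided by the same fraction for the unmutated ribozyme. CPEB3 self-cleaving ribozyme libraries were made by rounds of error-prone PCR, barcoded, and transcribed in vitro with T7 RNA polymerase for 5 hours at 37°C, and cleavage ran through transcription plus a 15 min DNase I step before EDTA. Illumina sequencing of template-switched reverse transcripts gave the reads, and DNA sequencing mapped the barcodes. Averages come from three batches, using variants with at least 5 reads.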

Variant	self-cleavage
A20G U26C G42A U51C A64G	0.28
A20G C40U A45G U80G	0.2
G19U C27U A35C A56U A65G U69A	0.06
A20G U49G U54G	0.21
G19U U25C U48C U51C U80C	0.1
G19U A20G C40G U54G	0.08
A20G U25A A28U A77G	0.19
A20G U31A U49C U80C	0.11
A20G U25A U41C U80C	0.19
G19U U72C C81A	0.47
G19C U31A A35G U41A U72A U80C	0.06
A20G C39A U54A U66C	0.06
A20G U67C U69A	0.67
A18U U54A A57G	0.25
G19A U51C U72C	0.27
A20C A64G A65G U78A	0.07
A20G U25C U31A A35U A47G	0.07
A20G U60C U72C U80C	0.31
A20G U31A C50U A77G	0.12
A20C U60A C62U U78A	0.04
A20G G63U A64G	0.46
A20G A21G G70U	0.29
A20G A35C U41A U60C	0.33
A20G A35U U69A	0.2

Variant	self-cleavage
G19U A21G U26A U69A	0.23
A20C U31C U49A U69C	0.21
A18U U49C U66A U72A	0.09
A20G A21G G52A U69G U72C	0.07
A20G U26C A64G U67C	0.29
A18U U58C U66C U80C	0.19
A18U U54C U60A	0.14
A20G C29A C38U U54A U69C	0.06
A20G A28G U41C U54G U80A	0.31
G19C A28U C44U	0.14
A20G U26C A45G U69A C71U U74C U76C	0.03
A20C G30A C32A A77U	0.21
G19U A35U U60C	0.11
A20G A35U U51C U54A U58C U74C	0.1
A20G U48C A57G U76C	1.08
A20G U49C A65G U66C	0.5
A20G U25C C29U	0.31
A20G A28U C37A G42A U54G U78C	0.25
A20G U60G A65G	0.15
A20G U41C U51C U54C	0.93
A20G U43C U60C U69A U80C	0.07
A20G A45G U76G	0.71
A20G U25C C50A U60C	0.05
A20G U26A U41C A57G U72C	0.43

Variant	self-cleavage
A18U U51C U67C	0.31
A20G U41C U49C U51C	0.26
A20G U31C A35U A45G U51A A65C	0.06
A20G A21G A35G A45G U48C	0.05
A20G A28U C29U A35G	0.24
A20G A35G A45G A64U U69A	0.21
A20G U72A A75U U78C	0.97
A20G A65G U72C	0.43
A20G U51A U80C	1.01
A20G A35U A64G U72C	0.16
A20G U25A G33A A35C G42A U80G	0.19
A20G A21G A56G	0.28
A20G U43C G53U	0.36
A20G A21G U25A C38U C44U G52C A57G	0.11
A20G U43C C50A G61A U74A	0.07
A20G A28U C37A G42A	0.25
A20G A21G C32A A56U A65G U69C	0.07
A20G U41G A45G U58C U66C	0.26
A20G C23U A57G	0.53
A20G U41G U58G U74A	0.42
A18U U54C A56G U58C	0.17
A18U U60C C81A	0.18
A20G A21G U26C A56G U72C U74C	0.15
A20G C29A U48C A65U	0.11

Variant	self-cleavage
A20G U41C A47U A64G U72A U74C U80C	0.07
G19A A45U A64U	0.15
G19U A21U U41C U67C G73A U74C	0.06
A20G A45G A64C	0.45
A20G C32U U49C U78C	0.3
A20G U26C C39A U54A	0.21
A20G U60A C68A U69C	0.09
A18U U74C U78C	0.81
A20G G46A A64G U74C	0.16
A20C G24C C32U U51A	0.15
A20G U43C U49A U58A	0.56
A20G U26A U43A A45G A57U	0.09
A20G A35U A45G U49C U58C U69C	0.05
A20G U48C U51A	0.22
G19U A56U U78C	0.17
A18U U54C G73U	0.43
A20G A21G A28G U60C U72C	0.07
A20G U26A A56G A57G	0.16
G19A U25C U26G A77G	0.12
A20G U26C U31A U41C U43C A64U U76C	0.25
A18U U60C A64G A65G	0.22
A20G C34U A35G U41C A56G U66C A75G	0.09
A20C A35G A45G C62A	0.61
A20G A47G A56G G63U	0.74

Variant	self-cleavage
A20C A56U C62U	0.1
A20G U31A U54C U66C	0.19
A18U U60C U66C	0.31
A20C C29U A64G A65G U76C U78C	0.03
A20G U25C U54C U67C	0.35
A18U U54C U76A	0.51
A20C A21C U31C U67C	0.3
A20G A28U G46U U60C	0.25
A20G U43C A65C U78C	0.15
G19C A20G G63A U78C U80C	0.23
A20G C38U U51A A56G U78C	0.09
G19C U43C U49A G52U A65G U69C U72C	0.1
A20G C29G A65U U74C	0.1
A20G U26C U43C	0.52
G19U A21G A45G U69A U80C	0.08
A20G U31C U43C U80C	0.22
A20G G42C A57G U60A A64U	0.06
A20G U31C A35G A57G	1.08
A20G G24A C40U U66C U78C	0.24
G19U U26C U48C U80C	0.21
G19A C27G U69A	0.08
A20G A56U U69C	0.35
A20G C34U U43A	0.27
A20G U25C U41C A57G	0.32

Variant	self-cleavage
A18U U58A U78A	0.13
G19U A47G U48C U69A	0.19
A20G A35G U60A U76C	0.4
A20G A28G A64G U80A	0.42
A20G U51C U60C A75U	0.18
A20G U67C U76C	0.99
A20G U41C A56U U60A U76A	0.17
A20G C23G A56G U60C	0.39
A20G U31A A45G U54C	0.25
A20G U72G A77U	0.35
A18U U58G U69C	0.13
A20G A35G G42A U51C C59U U80C	0.25
A20G A28G U48C U60A U78A	0.29
G19C U31A U67C	0.08
A20C U26C A45G	0.29
A20G U43C U60C A64G U72C A75U	0.08
A20G A28U A45G U58C U72C U74C	0.06
G19U C50A A56U A64G U69C	0.1
A20G U51A U66A	0.41
A20G U49A A77U	0.57
G19C A28U U43C U51C U60A A64U U74G	0.04
A20G A21G G30A A56G U67C U69A	0.13
A20G A57C U80A	0.34
A20G A45G A56U G61A	0.08

Variant	self-cleavage
A20G A21G C39U A57G U60A	0.15
A20G C39U U67C	0.46
G19A C39G A57G U78C	0.04
G19U A35U A47C U48C	0.13
A20G A35U U48C A56U U72C	0.07
A20G U25C A47C U76C	0.07
A20G A28U U41C U43C U51G U54C A64U	0.08
A18U U49C U51C U69A	0.36
A20G A45G A57G A64G U78C	0.14
A20G A35C U66C	0.23
G19C U48C U51C U66C U67C	0.07
A20G U48C A56G U60A	0.09
A20G U25C U54C U60C A64G U80C	0
A20G A35G A45U U48C G52C A56U U69C	0.3
A20G C39A A45C U60C	0
A20G U54C U76C U78A	0.49
A20G A56G G61A A64U	0.14
A20G G46A U48C U78C	0.15
A20G A21G G24C U67C	0.06
A20G A28G A35C U58C G73C U74C	0.09
A20G U41A U74A	0.23
A20G A21G A45U	0.18
A20G C34A U48C U78C	0.19
